# Out of some 71,000 compounds screened, about 1,800 (2.5%) were called active. The inconclusive results got no clear call from the source; some entries with a clear call stand among them for comparison. Calls follow the shape of the dose curve; as a rule, active = well fitted activation curve with a large enough effect in the signal ratio, with a control signal flat (not every such curve was filed as active); inconclusive = small, poorly fitted or top-dose-only effect, or effect the other way, or a change in a side signal; inactive = flat fitted curve, though single readings scatter; the % refers to the signal ratio. Where the call is inconclusive, the potency comes from a doubtful curve fit.
# Test: Cell signaling CRE-BLA (Fsk stim); as to activity change, negative = inhibition: % of control where 0% means no effect
# Conditions: CHO CRE-bla reporter (cAMP response element driving beta-lactamase), forskolin EC10, beta-lactamase ratio; activity change, negative = inhibition: at 38.2 µM (top of the series) unless noted
# Outline: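 The 460nm/530nm emission ratio after CCF4 loading defined %Activity, from which AC50 values were obtained. CRE-bla CHO cells received compound dilution series together with an EC10 level of NKH 477 for 3 hours at 37 degrees Celsius.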
# Potency is read from the fitted curve at half-maximal effect; tags tell the direction and shape of the fitted curve.
Structure (SMILES),Potency,"activity change, negative = inhibition"
Nc1nc2ccccc2n1/N=C/c1ccc(-c2ccccc2)o1,"inconclusive: 12.6 µM [rising, single point]",–
CN(C(=O)c1ccc2c(c1)OCO2)C1(C(=O)NC2CCCCC2)CCCCC1,–,inconclusive: 23.5%
Clc1ccc(-c2nn3c(-c4ccccc4)nnc3s2)cc1,"inconclusive: 7.94 µM [rising, partial curve, poor fit]",–
CC(=NC1CCCCC1)C1=C(O)c2ccccc2C1=O,"inconclusive: 10 µM [rising, single point]",–
Cc1ccc2[nH]c(C)c(CN(C)C3CCN(C)CC3)c(=O)c2c1,–,inconclusive: -13%
Cc1c(C(=O)NCc2ccc3c(c2)OCO3)oc2ccc(S(=O)(=O)N3CCCC3)cc12,–,inactive
O=C(Cn1cnc2c(nnn2Cc2ccc(F)cc2)c1=O)N1CCCc2ccccc21,–,inconclusive: -1.4%
CCSc1nc2c(c(=O)[nH]1)C(c1ccncc1)C(C(=O)OC(C)C)=C(C)N2 (stereo not given),–,inconclusive: 29.4%
COc1ccccc1C(=O)Nc1ccc(S(=O)(=O)Nc2cc(C)on2)cc1,"inconclusive: 20 µM [rising, single point]",–
NC(=O)c1oc2ccccc2c1NC(=O)c1nc2ccccc2s1,–,inactive
CC(C)CCn1cnc2c(cnn2-c2ccc(F)cc2)c1=O,"inconclusive: 12.6 µM [rising, single point]",–
CC(C)C(OC(=O)c1ccco1)C(=O)NCc1cccs1 (stereo not given),–,inactive
CC12CN3CCN(CC(C3)C1(O)CN1CCOCC1)C2 (stereo not given),–,inconclusive: 20.2% [at 7.6 µM]
OC1CCN(Cc2cccc(Oc3ccccc3)c2)CC1,"inconclusive: 1 µM [falling, single point]",–
CS(=O)(=O)N1CCN(c2nnc(-c3ccccc3)c3ccccc23)CC1,–,inconclusive: 15.7%
Cc1ccc2c(Cl)cc(Cl)c(OCc3c(C)noc3C)c2n1,–,inconclusive: 10.8%
Cc1ccc2[nH]c(=O)c(CN(Cc3ccco3)S(=O)(=O)c3c(C)ccc4nsnc34)cc2c1,–,inconclusive: -3.33%
O=C(C1CCN(S(=O)(=O)c2cccnc2)CC1)N1CCN(c2ccccc2Cl)CC1,–,inconclusive: -5.04%
CCCCCC(=O)O[C@H](CC(=O)O)C[N+](C)(C)C,–,inconclusive: -7.64%
N[C@@H](COP(=O)(O)O)C(=O)O,–,inconclusive: -2.85%
CCOC(=O)c1cnn2c(C(F)F)cc(C3CC3)nc12,"inconclusive: 15.8 µM [rising, partial curve]",–
O=C(O)Cc1coc(-c2ccc(F)cc2)n1,–,inconclusive: 5.25%
CCc1nnc(NC(=O)CSc2nc3c(c(=O)n2C)SC(C)C3)s1 (stereo not given),active: 3.16 µM,–
O=C(CSc1nnc2ccccn12)c1ccc2c(c1)OCCO2,–,inactive
CCCn1c(=NC(C)=O)c(C(=O)OCC)cc2c(=O)n3ccccc3nc21,active: 10 µM,–
CCCCC(CC)C(=O)O (stereo not given),–,inactive
COc1ccc(-c2cc(-c3ccc(OC)cc3)[nH]n2)cc1,"inconclusive: 25.1 µM [rising, single point]",–
CCCCC/C=C\C/C=C\CCCCCCCC(=O)O,–,inactive

Structure (SMILES),Potency,"activity change, negative = inhibition"
CC(C)CNc1nc(Oc2ccc(=O)n(-c3ccccc3)n2)nc(N2CCOCC2)n1,"inconclusive: 10 µM [rising, partial curve, poor fit]",–
Fc1ccc(Nc2nc(-c3cccnc3)nc3ccccc23)cc1,active: 10 µM,–
CCC(CC)n1[nH]c(=O)c2c(C)cc(C)nc21,"inconclusive: 12.6 µM [rising, single point]",–
Cc1nnc(C)c2c(C)n(Cc3ccc4c(c3)OCO4)c(C)c12,–,inactive
N#Cc1nc(-c2ccco2)oc1NCCN1CCOCC1,–,inactive
COc1cccc(OC)c1C(=O)Nc1cc(Cl)ccc1N1CCOCC1,–,inconclusive: 4.14%
O=C(CC1N=C2c3ccccc3N=C(SCc3ccc(F)cc3)N2C1=O)NCc1ccco1 (stereo not given),–,inactive
Cc1ccc2nc(-c3ccc(N)cc3)sc2c1S(=O)(=O)O,"inconclusive: 15.8 µM [rising, partial curve]",–
CC1(C)Cc2ccccc2-c2nc(NCCCO)n(-c3ccccc3)c(=O)c21,"inconclusive: 1.58 µM [rising, partial curve]",–
CCOC(=O)c1cc2c(=O)n3ccccc3nc2n(C(C)C)c1=NC(=O)c1ccncc1,"inconclusive: 12.6 µM [rising, partial curve]",–
CC(C)NC(=O)CSCc1ccccc1Cl,–,inconclusive: -9.04% [at 7.6 µM]
O=c1c2[nH]c3ccccc3c2ncn1Cc1ccncc1,–,inactive
N#Cc1cccc(NC(=O)N2CCCC3(CCN(C(=O)c4cnccn4)CC3)C2)c1,–,inactive
CCOC(=O)C1=C(C)NC(=O)NC1c1cccnc1 (stereo not given),"inconclusive: 0.02 µM [rising, single point]",–
COc1ccc(C2N=C(c3ccccc3)C(C)(C)N2O)cc1OC (stereo not given),"inconclusive: 5.01 µM [rising, single point]",–
COc1ccc2noc3c2c1C(=O)c1ccccc1-3,–,inactive
Cc1onc(-c2c(F)cccc2Cl)c1C(=O)OCN1C(=O)c2ccccc2C1=O,–,inactive
CCNc1ncc2nc(C)c(=O)n(C)c2n1,"inconclusive: 10 µM [rising, partial curve]",–
O=C(O)/C(Cc1cn[nH]n1)=N\O,–,inactive: 2.85% [at 7.6 µM]
CCCCOC(=O)CSc1nc2c(cc1C#N)C(=O)CC(C)(C)C2,–,inactive
O=C(/C=C/Nc1ccc(F)c(Cl)c1)c1ccco1,–,inactive
CCOc1ccc(C(=O)Nc2nnc(C)s2)cc1OCC,"inconclusive: 5.01 µM [rising, single point]",–
COc1ccc(CNc2ncnc3ccc(-c4ccoc4)cc23)c(OC)c1,–,inactive
COc1cc2c(cc1OC)-c1nnc(-c3cccs3)n1C(C)(C)C2,–,inactive
O=C1c2ccccc2NC(c2ccc3c(c2)OCCO3)N1c1ccc2c(c1)OCCO2 (stereo not given),–,inactive
O=S(=O)(O)c1cc(S(=O)(=O)O)c2c(N=Nc3cccc4ccccc34)c(O)ccc2c1,–,inactive: -8.12% [at 7.6 µM]
Cc1nc(N2CCN(C(=O)c3ccco3)CC2)c2oc3ccccc3c2n1,active: 3.98 µM,–
